Results taken from PubChem BioAssay (NCATS).
Inconclusive results, whose numbers are uncertain, are shown with a selection of clear calls. For part of these data: Potencies of inconclusive entries are left out as doubtful fits. The source made the active and inactive calls. Unless noted, calls come from the whole dose curve; as a rule, active = well fitted curve in the direction sought with a large enough effect; inconclusive = small, poorly fitted or top-dose-only effect, or another doubt; inactive = no such curve, though single readings can be large; an effect the other way counts as inactive or inconclusive.

Columns and labels:
[1] = qHTS of pediatric cancer cell lines to identify multiple opportunities for drug repurposing: Primary screen for SJ-GBM2 cells (AID 1347091); note: potency is the fitted concentration of half-maximal effect
In short: (§1)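 Cell viability, CellTiter-Glo luminescence; 500-1,000 cells/well, 8- or 11-point titration, 48 h compound exposure at 37 degrees C, 5% CO2. Controls: DMSO neutral, bortezomib 2.3 µM final as positive.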

[2] = qHTS of pediatric cancer cell lines to identify multiple opportunities for drug repurposing: Primary screen for BT-37 cells (AID 1347094); note: potency is the fitted concentration of half-maximal effect
In short: (§2)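 Readout: CellTiter-Glo luminescence, 48 h treatment. Controls DMSO (neutral) and bortezomib 2.3 µM final (positive). Potency and efficacy taken from primary-screen concentration-response curves.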

[3] = qHTS of pediatric cancer cell lines to identify multiple opportunities for drug repurposing: Primary screen for NB-EBc1 cells (AID 1347095); note: potency is the fitted concentration of half-maximal effect
In short: as §2

[4] = qHTS of pediatric cancer cell lines to identify multiple opportunities for drug repurposing: Primary screen for NB1643 cells (AID 1347099); note: nearly all actives have a fitted effect of over 50% in size
In short: as §2

[5] = qHTS of pediatric cancer cell lines to identify multiple opportunities for drug repurposing: Primary screen for BT-12 cells (AID 1347101); note: nearly all actives have a fitted effect of over 25% in size; note: potency is the fitted concentration of half-maximal effect
In short: (§3)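 Cells (500-1,000/well) rested 5 h, then received compounds for 48 h; metabolically active cells were measured by CellTiter-Glo luminescence. Final concentrations spanned up to 46 µM (MIPE, 11-point) or 0.59 nM-46 µM (NPC, 8-point) in primary screens, 11-point in follow-ups.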

[6] = qHTS of pediatric cancer cell lines to identify multiple opportunities for drug repurposing: Primary screen for control Hh wild type fibroblast cells (AID 1347106); note: potency is the fitted concentration of half-maximal effect; nearly all actives have a fitted effect of over 55% in size
In short: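 Viability after 48 h compound treatment at 37C, 500-1,000 cells/well, read as ATP luminescence with CellTiter-Glo. Primary screens used 11-point (MIPE, 0.78 nM-46 µM) or 8-point (NPC, 0.59 nM-46 µM) final concentrations; follow-up screens used 11-point dilutions.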

[7] = qHTS of pediatric cancer cell lines to identify multiple opportunities for drug repurposing: Primary screen for Rh41 cells (AID 1347108); note: potency is the fitted concentration of half-maximal effect; nearly all actives have a fitted effect of over 70% in size
In short: as §2

[8] = qHTS of pediatric cancer cell lines to identify multiple opportunities for drug repurposing: Primary screen for DAOY cells (AID 1347090); conditions: DAOY medulloblastoma viability, CellTiter-Glo luminescence, 48 h; activity change, negative = cytotoxic: at 46 µM (top of the series); note: potency is the fitted concentration of half-maximal effect; nearly all actives have a fitted effect of over 55% in size
In short: as §1

[9] = qHTS of pediatric cancer cell lines to identify multiple opportunities for drug repurposing: Primary screen for A673 cells (AID 1347092); conditions: A673 Ewing sarcoma viability, CellTiter-Glo ATP luminescence, 48 h; activity change, negative = cytotoxic: at 46 µM (top of the series); note: potency is the fitted concentration of half-maximal effect; nearly all actives have a fitted effect of over 45% in size
In short: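 Cells are plated, rested 5 h, dosed by pintool, incubated 48 h, then lysed with CellTiter-Glo and read by luminescence. DMSO is the neutral control; bortezomib at 2.3 uM final is the positive control.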

[10] = qHTS of pediatric cancer cell lines to identify multiple opportunities for drug repurposing: Primary screen for OHS-50 cells (AID 1347103); note: nearly all actives have a fitted effect of over 40% in size; note: potency is the fitted concentration of half-maximal effect
In short: as §3

[11] = qHTS of pediatric cancer cell lines to identify multiple opportunities for drug repurposing: Primary screen for MG 63 (6-TG R) cells (AID 1347105); conditions: MG 63 (6-TG R) viability, CellTiter-Glo, 48 h; activity change, negative = cytotoxic: at 46 µM (top of the series); note: potency is the fitted concentration of half-maximal effect; nearly all actives have a fitted effect of over 50% in size
In short: as §2

[12] = biological target: Cytochrome P450 2D6 (Homo sapiens) (UniProt P10635); experiment: Cytochrome P450 family 2 subfamily D member 6 (CYP2D6) small molecule antagonists: luciferase biochemical (cell-free) qHTS assay (AID 1645840; active = well fitted curve in the direction sought with a large enough effect in the repeat runs; inconclusive = weak or mixed curves; inactive = no such curve, though single readings can be large; an effect the other way counts as inactive or inconclusive; note: nearly all actives have a fitted effect of over 55% in size; note: potency is the fitted concentration of half-maximal effect)
In short: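 P450-Glo luminescent screen: recombinant CYP2D6 enzyme–proluciferin substrate mix preincubated with compound 10 min at room temperature, then NADPH regeneration added for 1 h at room temperature. Detection reagent added for 20 min; luciferin light read as relative luminescence units.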

[13] = system: Zika virus NS2B-NS3 protease (unlinked complex); experiment: Primary screen GU Rhodamine qHTS for Zika virus inhibitors: Unlinked NS2B-NS3 protease assay (AID 1347159); note: nearly all actives have a fitted effect of over 60% in size
In short: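 Compounds, tested up to 114 microM, were incubated for 15 minutes with 25 nM unlinked NS2B-NS3 protease at pH 8.0. Cleavage of 1.5 microM Rhodamine110 substrate was then followed by fluorescence for 15 minutes.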

[14] = system: Zika virus NS2B-NS3 protease (linked construct); experiment: Primary screen NINDS Rhodamine qHTS for Zika virus inhibitors (AID 1347160); conditions: activity change, negative = inhibition: at 57.1 µM (top of the series) unless noted; note: nearly all actives have a fitted effect of over 55% in size; note: potency is the fitted concentration of half-maximal effect
In short: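 Percent inhibition, normalized to uninhibited and enzyme-free controls, is fitted to a 4-parameter Hill equation. Fluorescence change comes from a 15-min cleavage of 1.5 microM bis-peptide Rhodamine110 substrate by 25 nM linked NS2B-NS3 at room temperature.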

[15] = Primary qHTS for small molecule stabilizers of the endoplasmic reticulum resident proteome: Secreted ER Calcium Modulated Protein (SERCaMP) assay (AID 1508630); conditions: SH-SY5Y GLuc-SERCaMP (Gaussia luciferase released on ER calcium loss) secretion, thapsigargin, luminescence; activity change, negative = inhibition: at 38.4 µM (top of the series) unless noted; note: potency is the fitted concentration of half-maximal effect
In short: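 GLuc-SERCaMP-expressing SH-SY5Y cells, pretreated 16 h with compound, are challenged with thapsigargin to empty ER calcium stores; after 4 h, coelenterazine is added directly to the medium and luminescence is imaged.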

[16] = biological target: Cytochrome P450 2C9 (Homo sapiens) (UniProt P11712); experiment: Cytochrome P450 family 2 subfamily C member 9 (CYP2C9) small molecule antagonists: luciferase biochemical (cell-free) qHTS assay (AID 1645842; active = well fitted curve in the direction sought with a large enough effect in the repeat runs; inconclusive = weak or mixed curves; inactive = no such curve, though single readings can be large; an effect the other way counts as inactive or inconclusive)
In short: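 Luminescence, after 20 min with luciferin detection reagent, reflected CYP2C9 turnover during a 1 h NADPH-driven reaction at 37C. Enzyme-substrate mix contained 0.4% bovine serum albumin and was preincubated with compound 10 min at room temperature.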

[17] = qHTS to identify inhibitors of the type 1 interferon - major histocompatibility complex class I in skeletal muscle: primary screen against the NCATS Mechanism Interrogation Plate v5.0 (MIPE) Libary (AID 1347411); conditions: iHSKM cells + IFN-b, HiBiT-tagged MHC-I luminescence, 24 h; activity change, negative = inhibition: at 45.8 µM (top of the series); note: potency is the fitted concentration of half-maximal effect; nearly all actives have a fitted effect of over 65% in size
In short: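 Cells were genome-edited human myoblasts carrying a HiBit tag on endogenous HLA-B. They were treated with IFN-beta (4.0 ng/ml) and titrated compounds (top 46 uM) for 24 hrs before lytic HiBiT detection.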
Tags give direction and shape of the fitted curve.

Sequence of UniProt P10635 (P10635 whole entry, looked up): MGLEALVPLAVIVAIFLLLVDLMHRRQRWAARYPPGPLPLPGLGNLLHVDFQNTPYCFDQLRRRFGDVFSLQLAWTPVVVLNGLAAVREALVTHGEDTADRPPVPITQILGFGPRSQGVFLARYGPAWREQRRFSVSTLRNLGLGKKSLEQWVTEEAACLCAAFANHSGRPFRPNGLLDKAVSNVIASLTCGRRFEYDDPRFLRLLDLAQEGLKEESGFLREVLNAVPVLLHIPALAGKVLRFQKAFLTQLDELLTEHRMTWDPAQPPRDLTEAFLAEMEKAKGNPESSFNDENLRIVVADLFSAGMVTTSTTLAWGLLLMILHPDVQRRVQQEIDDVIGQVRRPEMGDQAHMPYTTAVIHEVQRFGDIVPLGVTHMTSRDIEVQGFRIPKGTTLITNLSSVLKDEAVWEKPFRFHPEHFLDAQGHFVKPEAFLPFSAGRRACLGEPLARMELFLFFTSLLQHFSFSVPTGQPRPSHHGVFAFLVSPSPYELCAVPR
Sequence of UniProt P11712 (P11712 whole entry, looked up): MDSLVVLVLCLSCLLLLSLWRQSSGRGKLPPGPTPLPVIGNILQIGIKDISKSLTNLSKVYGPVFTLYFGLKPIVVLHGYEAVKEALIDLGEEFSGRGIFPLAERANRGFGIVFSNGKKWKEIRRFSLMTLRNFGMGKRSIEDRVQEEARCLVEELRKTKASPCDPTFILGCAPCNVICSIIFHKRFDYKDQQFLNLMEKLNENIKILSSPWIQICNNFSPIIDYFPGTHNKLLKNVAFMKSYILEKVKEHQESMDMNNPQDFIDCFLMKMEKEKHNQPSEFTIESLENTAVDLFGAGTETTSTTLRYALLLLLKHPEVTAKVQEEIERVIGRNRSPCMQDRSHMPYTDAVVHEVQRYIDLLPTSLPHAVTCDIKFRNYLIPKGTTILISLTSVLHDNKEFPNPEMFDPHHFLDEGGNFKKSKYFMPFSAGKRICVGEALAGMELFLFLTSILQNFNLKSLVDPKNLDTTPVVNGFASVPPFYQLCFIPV

SMILES: CCCCCCCCCCOCC(O)CN (stereo not given)
- Potency [1]: inconclusive [cytotoxic, single point]
- Potency [2]: inconclusive [cytotoxic, single point]
- Potency [3]: inconclusive [cytotoxic, partial curve, poor fit]
- Potency [4]: inactive
- Potency [5]: inconclusive [cytotoxic, single point]
- Potency [6]: inconclusive [cytotoxic, partial curve]
- Potency [7]: inconclusive [cytotoxic, single point]

SMILES: COC(=O)C1=C(C)NC(C)=C(C(=O)OCCN(C)Cc2ccccc2)C1c1cccc([N+](=O)[O-])c1 (stereo not given)
- Potency [8]: inconclusive [cytotoxic, partial curve, poor fit]
- Potency [1]: inconclusive [cytotoxic, single point]
- Potency [9]: inconclusive [cytotoxic, single point]
- Potency [2]: inconclusive [cytotoxic, single point]
- Potency [3]: inconclusive [cytotoxic, single point]
- Potency [5]: inconclusive [cytotoxic, single point]
- Potency [10]: active: 17.4 µM
- Potency [11]: inconclusive [cytotoxic, partial curve, poor fit]
- Potency [7]: inconclusive [cytotoxic, partial curve]

SMILES: c1cc(OCCCN2CCCCC2)ccc1CN1CCCCC1
- Potency [12]: inactive

SMILES: CC(=O)O[C@@H]1C[C@@H](OC(C)=O)C(C)(C)/C=C/[C@H](C)[C@H](OC(C)=O)[C@@]2(O)C[C@H](C)[C@H](OC(=O)c3ccccc3)[C@@H]2/C=C/1C
- Potency [13]: inactive

SMILES: N#Cc1cnc2c(Cl)cc(NCc3cn(CCN4CCCCCC4)nn3)cc2c1Nc1ccc(F)c(Cl)c1
- Potency [14]: inactive

SMILES: CCC(Cc1c(I)cc(I)c(N)c1I)C(=O)O (stereo not given)
- Potency [2]: inactive
- Potency [5]: inactive
- Potency [10]: inactive
- Potency [15]: inconclusive [inhibitor, partial curve, poor fit]
- Potency [16]: inconclusive [inhibitor, single point]

SMILES: O=C(/C=C/c1c(C(=O)O)[nH]c2cc(Cl)cc(Cl)c12)Nc1ccccc1
- Potency [14]: active: 3.16 µM
- Potency [12]: inconclusive [inhibitor, single point]
- Potency [16]: active: 21.3 µM

SMILES: CC[C@@](C)(Nc1ccnc(-c2c[nH]c3ncccc23)n1)C(=O)NCC(F)(F)F
- Potency [17]: inconclusive [inhibitor, partial curve]

SMILES: CCCc1cc(C)[nH]c(=O)c1CNC(=O)c1cc(-c2ccc(N3CCN(C(C)C)CC3)nc2)cc2c1cnn2C(C)C
- Potency [17]: inconclusive [inhibitor, single point]
- Potency [12]: inconclusive [inhibitor, single point]
